Experimental findings from the supplement of paper PMC7125110 are described below.

± gives the standard error. Variants at the floor of the assay are shown more often than the library holds them. A value given as a limit tells only on which side of the number the result lay.

Sequences and labels used below:
B1: glmS ribozyme (parent)
chain: AUAAAAGCGCCAGAACUACAGAAAUGUAGUUGACGAGGAGGAGGUUUAUCGAAUUUUCGGCGGAUGCCUCCAAA

What all share (conditions): with glucosamine-6-phosphate
Data set [1] covers variants of B1. Nature of the data set: self-cleavage kobs at 40 uM GlcN6P; higher = faster cleavage; RNA array. The method in brief:
(§1)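 Ribozyme variants carrying barcodes were transcribed in situ on sequenced MiSeq chips by E. coli RNA polymerase and tracked at 37 °C with a hybridised Cy3 probe. They were exposed to 40 μM to 10 mM glucosamine-6-phosphate in HEPES/KCl/Mg(OAc)2 buffer. kobs came from exponential decay fits of normalised per-tile medians, and kcat and KM from weighted Michaelis–Menten fits.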

In data set [2] the parent is B1. The data set is described as follows: self-cleavage kobs at 640 uM GlcN6P; higher = faster cleavage; RNA array. A digest of the protocol: as §1
In data set [3] the parent is B1. Nature of the data set: self-cleavage kobs at 2500 uM GlcN6P; higher = faster cleavage; RNA array. The method in brief: as §1
The variants in data set [4] derive from B1. Nature of the data set: self-cleavage kobs at 160 uM GlcN6P; higher = faster cleavage; RNA array. The method in brief: as §1
In data set [5] the parent is B1. Nature of the data set: self-cleavage kobs at 10000 uM GlcN6P; higher = faster cleavage; RNA array. The method in brief: as §1
Data set [6] covers variants of B1. The data set is described as follows: kcat; higher = faster cleavage; RNA array. A digest of the protocol:
as §1

As to A6G A15G C71U, the “self-cleavage kobs at 40 uM GlcN6P” value in the data set with glucosamine-6-phosphate [1] was under 1e-05 s⁻¹.
On to A6C C8G A48U U49C G66C, for which the “self-cleavage kobs at 40 uM GlcN6P” value with glucosamine-6-phosphate [1] was under 1e-05 s⁻¹. Besides, the “self-cleavage kobs at 640 uM GlcN6P” value with glucosamine-6-phosphate [2] is under 1e-05 s⁻¹. Further, in the data set with glucosamine-6-phosphate [3], the “self-cleavage kobs at 2500 uM GlcN6P” value is under 1e-05 s⁻¹.
As for A6C G35U G38A G43U U54G C67U, the “self-cleavage kobs at 40 uM GlcN6P” value with glucosamine-6-phosphate [1] was under 1e-05 s⁻¹.
Take A6G A53C: the “self-cleavage kobs at 40 uM GlcN6P” value with glucosamine-6-phosphate [1] is under 1e-05 s⁻¹. The “self-cleavage kobs at 160 uM GlcN6P” value in the data set with glucosamine-6-phosphate [4] is under 1e-05 s⁻¹.
A6G A53U: the “self-cleavage kobs at 40 uM GlcN6P” value with glucosamine-6-phosphate [1] is under 1e-05 s⁻¹.
Same read-out and setting: to U2C G9C A48G G62A C68U belongs under 1e-05 s⁻¹.
On to A6G C58G, for which, in the data set with glucosamine-6-phosphate [1], the “self-cleavage kobs at 40 uM GlcN6P” value is under 1e-05 s⁻¹. Also, the “self-cleavage kobs at 640 uM GlcN6P” value with glucosamine-6-phosphate [2] was under 1e-05 s⁻¹. Besides, the “self-cleavage kobs at 160 uM GlcN6P” value with glucosamine-6-phosphate [4] was under 1e-05 s⁻¹. Also, the “self-cleavage kobs at 2500 uM GlcN6P” value in the data set with glucosamine-6-phosphate [3] was under 1e-05 s⁻¹. The “self-cleavage kobs at 10000 uM GlcN6P” value with glucosamine-6-phosphate [5] was under 1e-05 s⁻¹.
In general, kcat refers to the maximal rate divided by the concentration of active sites. Take C68G C71A: in the data set with glucosamine-6-phosphate [6], the kcat was under 1e-05 s⁻¹. Moreover, in the data set with glucosamine-6-phosphate [1], the “self-cleavage kobs at 40 uM GlcN6P” value was under 1e-05 s⁻¹.
With A6C A64C, the “self-cleavage kobs at 40 uM GlcN6P” value in the data set with glucosamine-6-phosphate [1] was under 1e-05 s⁻¹. Moreover, in the data set with glucosamine-6-phosphate [2], the “self-cleavage kobs at 640 uM GlcN6P” value is under 1e-05 s⁻¹. Moreover, the “self-cleavage kobs at 160 uM GlcN6P” value with glucosamine-6-phosphate [4] was under 1e-05 s⁻¹. Besides, the “self-cleavage kobs at 2500 uM GlcN6P” value with glucosamine-6-phosphate [3] was under 1e-05 s⁻¹. The “self-cleavage kobs at 10000 uM GlcN6P” value with glucosamine-6-phosphate [5] is under 1e-05 s⁻¹.
Regarding A6G A14U G29C G35A G60C, the “self-cleavage kobs at 40 uM GlcN6P” value with glucosamine-6-phosphate [1] was under 1e-05 s⁻¹. The “self-cleavage kobs at 640 uM GlcN6P” value with glucosamine-6-phosphate [2] was under 1e-05 s⁻¹. Further, the “self-cleavage kobs at 2500 uM GlcN6P” value with glucosamine-6-phosphate [3] is under 1e-05 s⁻¹.
Take A6G A36C G38C U46A U55C: the “self-cleavage kobs at 40 uM GlcN6P” value with glucosamine-6-phosphate [1] was under 1e-05 s⁻¹.
A6G A42G G51A A52U: in the data set with glucosamine-6-phosphate [1], the “self-cleavage kobs at 40 uM GlcN6P” value was under 1e-05 s⁻¹. Also, the “self-cleavage kobs at 10000 uM GlcN6P” value in the data set with glucosamine-6-phosphate [5] was under 1e-05 s⁻¹.
Turning to A6C C34A A42G, the “self-cleavage kobs at 40 uM GlcN6P” value in the data set with glucosamine-6-phosphate [1] is under 1e-05 s⁻¹. Also, the “self-cleavage kobs at 10000 uM GlcN6P” value with glucosamine-6-phosphate [5] is under 1e-05 s⁻¹.
Take A5U C10G A15U G41A A64U: the “self-cleavage kobs at 40 uM GlcN6P” value in the data set with glucosamine-6-phosphate [1] is under 1e-05 s⁻¹. The “self-cleavage kobs at 10000 uM GlcN6P” value with glucosamine-6-phosphate [5] is under 1e-05 s⁻¹.
As for A6C A14C G59U, the “self-cleavage kobs at 40 uM GlcN6P” value with glucosamine-6-phosphate [1] was under 1e-05 s⁻¹.
Turning to A6G C16A U55C A64C, in the data set with glucosamine-6-phosphate [1], the “self-cleavage kobs at 40 uM GlcN6P” value is under 1e-05 s⁻¹. Also, the “self-cleavage kobs at 2500 uM GlcN6P” value with glucosamine-6-phosphate [3] is under 1e-05 s⁻¹.
Regarding A6C U55A, the “self-cleavage kobs at 40 uM GlcN6P” value with glucosamine-6-phosphate [1] is under 1e-05 s⁻¹. Besides, the “self-cleavage kobs at 160 uM GlcN6P” value with glucosamine-6-phosphate [4] is under 1e-05 s⁻¹. Moreover, the “self-cleavage kobs at 2500 uM GlcN6P” value with glucosamine-6-phosphate [3] is 7.01e-05 ± 1.6e-05 s⁻¹. Moreover, in the data set with glucosamine-6-phosphate [5], the “self-cleavage kobs at 10000 uM GlcN6P” value worked out at 7.27e-05 ± 1.2e-05 s⁻¹.
On to A6C U55C, for which the “self-cleavage kobs at 40 uM GlcN6P” value with glucosamine-6-phosphate [1] is under 1e-05 s⁻¹.
Take A6G A15G G44A: in the data set with glucosamine-6-phosphate [1], the “self-cleavage kobs at 40 uM GlcN6P” value is under 1e-05 s⁻¹. The “self-cleavage kobs at 640 uM GlcN6P” value with glucosamine-6-phosphate [2] was under 1e-05 s⁻¹. Besides, the “self-cleavage kobs at 2500 uM GlcN6P” value with glucosamine-6-phosphate [3] is under 1e-05 s⁻¹. The “self-cleavage kobs at 10000 uM GlcN6P” value with glucosamine-6-phosphate [5] was under 1e-05 s⁻¹.
On to G59A G66C, for which the kcat in the data set with glucosamine-6-phosphate [6] was under 1e-05 s⁻¹.
On to A6C G35C, for which, in the data set with glucosamine-6-phosphate [1], the “self-cleavage kobs at 40 uM GlcN6P” value was under 1e-05 s⁻¹. The “self-cleavage kobs at 640 uM GlcN6P” value in the data set with glucosamine-6-phosphate [2] was under 1e-05 s⁻¹. Also, in the data set with glucosamine-6-phosphate [4], the “self-cleavage kobs at 160 uM GlcN6P” value is under 1e-05 s⁻¹. Further, the “self-cleavage kobs at 2500 uM GlcN6P” value with glucosamine-6-phosphate [3] is under 1e-05 s⁻¹. The “self-cleavage kobs at 10000 uM GlcN6P” value with glucosamine-6-phosphate [5] was under 1e-05 s⁻¹.
Turning to A64U C68G, the turnover number (kcat) with glucosamine-6-phosphate [6] was under 1e-05 s⁻¹.
In the case of A6G C11G A42U, in the data set with glucosamine-6-phosphate [1], the “self-cleavage kobs at 40 uM GlcN6P” value was under 1e-05 s⁻¹. In addition, in the data set with glucosamine-6-phosphate [3], the “self-cleavage kobs at 2500 uM GlcN6P” value was under 1e-05 s⁻¹. Besides, the “self-cleavage kobs at 10000 uM GlcN6P” value with glucosamine-6-phosphate [5] is under 1e-05 s⁻¹.
As for A6G A64U G66A, the “self-cleavage kobs at 40 uM GlcN6P” value with glucosamine-6-phosphate [1] is under 1e-05 s⁻¹. Besides, in the data set with glucosamine-6-phosphate [2], the “self-cleavage kobs at 640 uM GlcN6P” value is under 1e-05 s⁻¹. In addition, the “self-cleavage kobs at 160 uM GlcN6P” value in the data set with glucosamine-6-phosphate [4] is under 1e-05 s⁻¹. The “self-cleavage kobs at 10000 uM GlcN6P” value with glucosamine-6-phosphate [5] was under 1e-05 s⁻¹.
Regarding A6C G7U G44U, in the data set with glucosamine-6-phosphate [1], the “self-cleavage kobs at 40 uM GlcN6P” value is under 1e-05 s⁻¹.
As to G62C C68U, the kcat in the data set with glucosamine-6-phosphate [6] was under 1e-05 s⁻¹. The “self-cleavage kobs at 2500 uM GlcN6P” value with glucosamine-6-phosphate [3] is under 1e-05 s⁻¹.
